# The list shows a part of the results.
# B1: rAAL-I144G (Agrocybe aegerita), Q6WY08 (protein)
# chain: MQGVNIYNISAGTSVDLAAPVTTGDIVTFFSSALNLNAGAGNPNNTTLNLFAENGAYLLHIAFRLQENVIIFNSRQPDGPWLVEQRVSDVANQFAGIDGKAMVTVFDHGDKYQVVINEKTVIQYTKQISGLTLSLSYNATEETSGFSTVVEAVTYTGLALEHHHHHH
# Tests used:
# Experiment in all cases: glycan array binding signal (z-score within array); higher = stronger binding
# Conditions in all cases: glycan notation: IUPAC condensed, linker removed; mutation: I144G
# [1] = target: GlcNAc(b1-3)Gal(b1-4)GlcNAc(b1-3)Gal(b1-4)GlcNAc(b1-3)Gal(b1-4)GlcNAc(b1-3)Gal(b1-4)GlcNAc(b1-2)[GlcNAc(b1-3)Gal(b1-4)GlcNAc(b1-3)Gal(b1-4)GlcNAc(b1-3)Gal(b1-4)GlcNAc(b1-3)Gal(b1-4)GlcNAc(b1-6)]Man(a1-6)[GlcNAc(b1-3)Gal(b1-4)GlcNAc(b1-3)Gal(b1-4)GlcNAc(b1-3)Gal(b1-4)GlcNAc(b1-3)Gal(b1-4)GlcNAc(b1-2)Man(a1-3)]Man(b1-4)GlcNAc(b1-4)[Fuc(a1-6)]GlcNAc
# How it was run: (§1)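 The binding signal is a Z-score computed within each array. Data were drawn from 3228 arrays in the Consortium for Functional Glycomics database, restricted to those with a known protein sequence. Scores were averaged over arrays of the same protein sequence at different concentrations or buffers, and over linkers, and negative values can be taken as non-binding.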
# [2] = target: GlcNAc(b1-3)Gal(b1-4)GlcNAc(b1-3)Gal(b1-4)GlcNAc(b1-3)GalNAc
# How it was run: as §1
# [3] = target: GlcNAc(b1-3)Gal(b1-4)GlcNAc(b1-3)GalNAc
# How it was run: as §1
# [4] = target: GlcNAc(b1-3)Gal(b1-4)GlcNAc(b1-3)[GlcNAc(b1-3)Gal(b1-4)GlcNAc(b1-3)]GalNAc
# How it was run: as §1
# [5] = target: GlcNAc(b1-3)Gal(b1-4)GlcNAc(b1-6)[Gal(b1-3)]GalNAc
# How it was run: as §1
# [6] = target: GlcNAc(b1-3)Gal(b1-4)GlcNAc(b1-6)[GlcNAc(b1-3)Gal(b1-3)]GalNAc
# How it was run: as §1
# [7] = target: GlcNAc(b1-3)Gal(b1-4)GlcNAc(b1-6)[GlcNAc(b1-3)]Gal(b1-4)GlcNAc
# How it was run: as §1
# GlcNAc(b1-3)GalNAc = target: GlcNAc(b1-3)GalNAc
# How it was run: as §1
# GlcNAc(b1-3)Man = target: GlcNAc(b1-3)Man
# How it was run: as §1
# [8] = target: GlcNAc(b1-3)[GlcNAc(b1-4)][GlcNAc(b1-6)]GlcNAc
# How it was run: as §1
# [9] = target: GlcNAc(b1-3)[GlcNAc(b1-6)]Gal(b1-4)GlcNAc
# How it was run: as §1
# [10] = target: GlcNAc(b1-3)[GlcNAc(b1-6)]GalNAc
# How it was run: as §1
# [11] = target: GlcNAc(b1-4)Gal(b1-4)GlcNAc
# How it was run: as §1
# GlcNAc(b1-4)GlcNAc = target: GlcNAc(b1-4)GlcNAc
# How it was run: as §1
# [12] = target: GlcNAc(b1-4)GlcNAc(b1-4)GlcNAc
# How it was run: as §1
# [13] = target: GlcNAc(b1-4)GlcNAc(b1-4)GlcNAc(b1-4)GlcNAc(b1-4)GlcNAc
# How it was run: as §1
# [14] = target: GlcNAc(b1-4)GlcNAc(b1-4)GlcNAc(b1-4)GlcNAc(b1-4)GlcNAc(b1-4)GlcNAc
# How it was run: as §1
# [15] = target: GlcNAc(b1-4)[GlcNAc(b1-6)]GalNAc
# How it was run: as §1
# [16] = target: GlcNAc(b1-6)Gal(b1-4)GlcNAc
# How it was run: as §1
# GlcNAc(b1-6)GalNAc = target: GlcNAc(b1-6)GalNAc
# How it was run: as §1
# [17] = target: GlcNAc6S(b1-3)Gal(b1-4)GlcNAc
# How it was run: as §1
# Kdn(a2-3)Gal(b1-3)GalNAc = target: Kdn(a2-3)Gal(b1-3)GalNAc
# How it was run: as §1
# Kdn(a2-3)Gal(b1-3)GlcNAc = target: Kdn(a2-3)Gal(b1-3)GlcNAc
# How it was run: as §1
# Kdn(a2-3)Gal(b1-4)Glc = target: Kdn(a2-3)Gal(b1-4)Glc
# How it was run: as §1
# Kdn(a2-3)Gal(b1-4)GlcNAc = target: Kdn(a2-3)Gal(b1-4)GlcNAc
# How it was run: as §1
# [18] = target: Kdn(a2-3)Gal(b1-4)[Fuc(a1-3)]GlcNAc
# How it was run: as §1
# Kdn(a2-6)Gal(b1-4)GlcNAc = target: Kdn(a2-6)Gal(b1-4)GlcNAc
# How it was run: as §1
# [19] = target: Man(a1-2)Man(a1-2)Man(a1-3)Man
# How it was run: as §1
# [20] = target: Man(a1-2)Man(a1-2)Man(a1-6)[Man(a1-3)]Man
# How it was run: as §1
# Man(a1-2)Man(a1-3)Man = target: Man(a1-2)Man(a1-3)Man
# How it was run: as §1
# [21] = target: Man(a1-2)Man(a1-3)[Man(a1-2)Man(a1-6)]Man
# How it was run: as §1
# [22] = target: Man(a1-2)Man(a1-3)[Man(a1-2)Man(a1-6)]Man(a1-6)[Man(a1-2)Man(a1-2)Man(a1-3)]Man
# How it was run: as §1
# [23] = target: Man(a1-2)Man(a1-3)[Man(a1-2)Man(a1-6)]Man(a1-6)[Man(a1-2)Man(a1-2)Man(a1-3)]Man(b1-4)GlcNAc(b1-4)GlcNAc
# How it was run: as §1
# [24] = target: Man(a1-2)Man(a1-3)[Man(a1-6)]Man(a1-6)[Man(a1-2)Man(a1-3)]Man(b1-4)GlcNAc(b1-4)GlcNAc
# How it was run: as §1
# [25] = target: Man(a1-2)Man(a1-6)[Man(a1-3)]Man(a1-6)[Man(a1-2)Man(a1-2)Man(a1-3)]Man
# How it was run: as §1
# [26] = target: Man(a1-2)Man(a1-6)[Man(a1-3)]Man(a1-6)[Man(a1-2)Man(a1-2)Man(a1-3)]Man(b1-4)GlcNAc(b1-4)GlcNAc
# How it was run: as §1
# Man(a1-3)[Man(a1-6)]Man = target: Man(a1-3)[Man(a1-6)]Man
# How it was run: as §1
# [27] = target: Man(a1-3)[Man(a1-6)]Man(a1-6)[Man(a1-2)Man(a1-3)]Man(b1-4)GlcNAc(b1-4)GlcNAc
# How it was run: as §1
# [28] = target: Man(a1-3)[Man(a1-6)]Man(a1-6)[Man(a1-3)]Man
# How it was run: as §1
# [29] = target: Man(a1-3)[Man(a1-6)]Man(a1-6)[Man(a1-3)]Man(b1-4)GlcNAc(b1-4)GlcNAc
# How it was run: as §1
# [30] = target: Man(a1-3)[Man(a1-6)]Man(b1-4)GlcNAc(b1-4)GlcNAc
# How it was run: as §1
# [31] = target: Man(a1-3)[Man(a1-6)]Man(b1-4)GlcNAc(b1-4)[Fuc(a1-6)]GlcNAc
# How it was run: as §1
# Man(a1-6)Man = target: Man(a1-6)Man
# How it was run: as §1
# Man(b1-4)GlcNAc = target: Man(b1-4)GlcNAc
# How it was run: as §1
# MurNAc(b1-4)GlcNAc = target: MurNAc(b1-4)GlcNAc
# How it was run: as §1
binder,measurement,setting,value
B1,glycan array binding signal (z-score),[1],-0.035
same,glycan array binding signal (z-score),[2],-0.14
same,glycan array binding signal (z-score),[3],-0.092
same,glycan array binding signal (z-score),[4],-0.101
same,glycan array binding signal (z-score),[5],-0.113
same,glycan array binding signal (z-score),[6],-0.105
same,glycan array binding signal (z-score),[7],-0.157
same,glycan array binding signal (z-score),GlcNAc(b1-3)GalNAc,-0.106
same,glycan array binding signal (z-score),GlcNAc(b1-3)Man,-0.122
same,glycan array binding signal (z-score),[8],-0.077
same,glycan array binding signal (z-score),[9],-0.068
same,glycan array binding signal (z-score),[10],-0.17
same,glycan array binding signal (z-score),[11],-0.02
same,glycan array binding signal (z-score),GlcNAc(b1-4)GlcNAc,-0.172
same,glycan array binding signal (z-score),[12],-0.174
same,glycan array binding signal (z-score),[13],-0.154
same,glycan array binding signal (z-score),[14],-0.209
same,glycan array binding signal (z-score),[15],-0.144
same,glycan array binding signal (z-score),[16],-0.107
same,glycan array binding signal (z-score),GlcNAc(b1-6)GalNAc,-0.16
same,glycan array binding signal (z-score),[17],-0.006
same,glycan array binding signal (z-score),Kdn(a2-3)Gal(b1-3)GalNAc,-0.044
same,glycan array binding signal (z-score),Kdn(a2-3)Gal(b1-3)GlcNAc,-0.016
same,glycan array binding signal (z-score),Kdn(a2-3)Gal(b1-4)Glc,-0.084
same,glycan array binding signal (z-score),Kdn(a2-3)Gal(b1-4)GlcNAc,-0.163
same,glycan array binding signal (z-score),[18],-0.106
same,glycan array binding signal (z-score),Kdn(a2-6)Gal(b1-4)GlcNAc,-0.099
same,glycan array binding signal (z-score),[19],0
same,glycan array binding signal (z-score),[20],-0.102
same,glycan array binding signal (z-score),Man(a1-2)Man(a1-3)Man,-0.075
same,glycan array binding signal (z-score),[21],-0.162
same,glycan array binding signal (z-score),[22],-0.099
same,glycan array binding signal (z-score),[23],-0.201
same,glycan array binding signal (z-score),[24],-0.113
same,glycan array binding signal (z-score),[25],-0.073
same,glycan array binding signal (z-score),[26],-0.006
same,glycan array binding signal (z-score),Man(a1-3)[Man(a1-6)]Man,-0.024
same,glycan array binding signal (z-score),[27],0.022
same,glycan array binding signal (z-score),[28],-0.175
same,glycan array binding signal (z-score),[29],-0.12
same,glycan array binding signal (z-score),[30],-0.094
same,glycan array binding signal (z-score),[31],-0.08
same,glycan array binding signal (z-score),Man(a1-6)Man,-0.179
same,glycan array binding signal (z-score),Man(b1-4)GlcNAc,-0.09
same,glycan array binding signal (z-score),MurNAc(b1-4)GlcNAc,-0.17

# Source: the supplement of paper PMC8728848
